# The other results are listed elsewhere or left out. At the low end of the ranking the order means little.
# Biological target: T1, GST-Rok (full length) (UniProt O34857)
# T1 sequence: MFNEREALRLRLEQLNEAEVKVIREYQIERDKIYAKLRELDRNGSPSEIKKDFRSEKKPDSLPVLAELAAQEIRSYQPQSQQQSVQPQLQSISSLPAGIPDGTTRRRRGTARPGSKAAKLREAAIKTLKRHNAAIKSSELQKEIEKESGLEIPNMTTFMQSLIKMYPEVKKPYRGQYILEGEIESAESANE
# Test: protein binding microarray;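 further: rank score from −0.5 (least bound) to 0.5 (best bound)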
# Conditions: Rok is a gene silencer of Bacillus subtilis; high values mean tight binding; most listed sequences are background and not binding sites; double strand, one strand shown
row,Sequence,binding signal
1,ATGTGGAA,-0.0729 E-score
2,CTATTAAA,0.116 E-score
3,CAACTTGG,-0.131 E-score
4,CTCATCAC,0.0444 E-score
5,ATTTAATA,0.228 E-score
6,ATCTGGGA,-0.127 E-score
7,CTTGCGTA,0.104 E-score
8,CTCAGTAA,0.086 E-score
9,AAAAGCTA,0.0708 E-score
10,ACAACGTG,-0.0497 E-score
11,CATCAGTA,0.0497 E-score
12,CGCCGTGC,-0.294 E-score
13,AGTTCTGA,0.195 E-score
14,GCCCTAGC,-0.328 E-score
15,GCATCGCA,0.0124 E-score
16,GAGACTGC,-0.106 E-score
17,CTTACAAA,0.0672 E-score
18,ATGTACAG,0.3 E-score
19,ACTGTAAA,0.17 E-score
20,CTTCAAGC,-0.269 E-score
21,AAAACGGG,-0.119 E-score
22,AATGGGGT,-0.168 E-score
23,ACATACTA,0.361 E-score
24,GAACACAC,-0.124 E-score
25,GGCACCGA,-0.393 E-score

row,Sequence,binding signal
1,CCTTCTAC,0.214 E-score
2,CGCTTGAA,-0.157 E-score
3,AGCTCGCC,-0.0406 E-score
4,GGTCTCGA,-0.255 E-score
5,CAACATTC,-0.0288 E-score
6,CCTGTTAC,-0.0212 E-score
7,CCTGTCAC,-0.265 E-score
8,ACGGATCA,0.0527 E-score
9,AATAGGTA,0.333 E-score
10,TCTCGCCA,-0.124 E-score
11,AACTAGAT,0.369 E-score
12,GATCGAAC,0.121 E-score
13,CAACAGAC,-0.0636 E-score
14,AACCGACC,-0.14 E-score
15,CATTAACG,-0.00911 E-score
16,AATCCCAG,-0.202 E-score
17,CCTAAAAG,0.00605 E-score
18,TACGTTGA,0.0836 E-score
19,GATTCAGA,-0.154 E-score
20,CCCAGATC,-0.315 E-score
21,AACCGTGG,-0.0188 E-score
22,CGTCAAAG,-0.218 E-score
23,ACGTTTAT,0.145 E-score
24,ATGTATTG,0.223 E-score
25,AACGCGTT,0.14 E-score

row,Sequence,binding signal
1,ACTTATAC,0.333 E-score
2,GTCGGAAC,-0.162 E-score
3,CCCAATGC,-0.21 E-score
4,ACCTGAAG,0.0462 E-score
5,ACAGTATA,0.343 E-score
6,AGCTATGA,0.19 E-score
7,ATGCGGAA,0.0222 E-score
8,TTAATTAA,0.258 E-score
9,CGGGTCCA,-0.258 E-score
10,AGACCTGA,-0.0103 E-score
11,GATTGTCA,0.1 E-score
12,GGACAGGA,-0.211 E-score
13,CTCTGTTA,0.00411 E-score
14,GCACGAGA,-0.157 E-score
15,AAGGGAAA,-0.116 E-score
16,ATCTACCC,0.25 E-score
17,ATCAATCC,-0.0557 E-score
18,CTTACGTA,0.179 E-score
19,CAGAGTCG,-0.14 E-score
20,GTCATACA,0.0863 E-score
21,ACGACGAA,0.133 E-score
22,CGTGTACC,-0.123 E-score
23,TAACACTA,0.284 E-score
24,TCTGAGAA,0.0283 E-score
25,GGTGTCCA,-0.279 E-score

row,Sequence,binding signal
1,CCTAAAGC,-0.165 E-score
2,TGTCGTAA,0.217 E-score
3,GCTAACAA,-0.0584 E-score
4,CGGATAAA,0.178 E-score
5,ATGTCAGC,0.0377 E-score
6,GTGACGGA,-0.136 E-score
7,AATCGGAA,0.0335 E-score
8,GAGCGGCC,-0.145 E-score
9,AGCCACGG,-0.331 E-score
10,GTTCAGAA,-0.119 E-score
11,TATACGAA,0.111 E-score
12,ACGCGATC,-0.16 E-score
13,AATTGTCT,0.0901 E-score
14,CCTCTACC,0.0313 E-score
15,TCTCTTCA,-0.149 E-score
16,CCTTTGAA,-0.337 E-score
17,CTTGACAA,-0.11 E-score
18,GACATGGC,0.0109 E-score
19,CTATATTA,0.384 E-score
20,ATTTCTAG,0.333 E-score
21,AGCGGAAT,0.133 E-score
22,GGCGCAAA,0.0895 E-score
23,ATGCGTAC,-0.0228 E-score
24,AAGAAAAA,0.0725 E-score
25,GACCACGC,-0.0613 E-score

row,Sequence,binding signal
1,AAGTGAGA,-0.0697 E-score
2,AGGTTCTC,-0.239 E-score
3,TAGCGGAA,0.245 E-score
4,CGGTTCAG,-0.103 E-score
5,CAGTAAAC,0.081 E-score
6,AACTTGGA,0.176 E-score
7,ACCTAAAG,-0.0934 E-score
8,GGACGATA,-0.0586 E-score
9,CATCTAGC,0.119 E-score
10,ACAGAGAT,0.103 E-score
11,AATGGGGA,-0.237 E-score
12,TCAGCAAA,-0.0262 E-score
13,ATTAGTAA,0.314 E-score
14,GTAGCTGA,0.219 E-score
15,CACTATTC,-0.0318 E-score
16,ACATTGAA,0.0464 E-score
17,AGACCATC,-0.171 E-score
18,ACAACTGG,-0.111 E-score
19,AACAGACC,-0.0512 E-score
20,CAAAACGA,-0.0901 E-score
21,GAAAAGAC,0.151 E-score
22,CACCGTAC,-0.0705 E-score
23,AAAGATTA,0.125 E-score
24,AGACTTCC,-0.151 E-score
25,CTTGTAAA,0.211 E-score

row,Sequence,binding signal
1,CGAATCGC,-0.207 E-score
2,AACATTCC,0.103 E-score
3,GTCTCCAC,-0.176 E-score
4,GCCACGTA,0.00863 E-score
5,GCTAAAAC,0.0751 E-score
6,TATCCTGA,-0.00716 E-score
7,CAGATTCC,-0.0974 E-score
8,TCCGATCA,-0.104 E-score
9,CAGAACCC,-0.227 E-score
10,AGACATGC,-0.0785 E-score
11,CCCTCACG,-0.262 E-score
12,AGAAGTCT,0.0645 E-score
13,GATGTGTA,0.217 E-score
14,CTAGTTCA,0.152 E-score
15,CCAACCGA,-0.0621 E-score
16,ACACCACT,0.134 E-score
17,AAATTTCC,0.101 E-score
18,CGGCGGGA,-0.313 E-score
19,CGGCCCAA,-0.197 E-score
20,AACGGGGT,-0.166 E-score
21,TAGAAACA,0.239 E-score
22,CTCCGCGA,-0.0969 E-score
23,TGTCGCAA,-0.16 E-score
24,ATGGATGA,0.105 E-score
25,ATAGTCTA,0.0771 E-score

row,Sequence,binding signal
1,ATGGGCAC,-0.145 E-score
2,AGTTATAT,0.291 E-score
3,GAGCACAC,-0.106 E-score
4,CCATAGAA,0.161 E-score
5,CAAAAGCA,-0.242 E-score
6,CACAACCG,0.019 E-score
7,CGTAGAAC,0.0102 E-score
8,CGTTCAGA,-0.0785 E-score
9,GGGCCGAA,-0.346 E-score
10,CGACAATA,0.0992 E-score
11,CTCCGACA,-0.231 E-score
12,GACAAACA,0.0661 E-score
13,CCTGGTTA,-0.0555 E-score
14,ATTCAAAT,-0.0683 E-score
15,ATGATCGA,0.0657 E-score
16,AAAGTGGG,-0.154 E-score
17,AAGCACAC,-0.177 E-score
18,AGAGGACG,-0.302 E-score
19,ATTTAGCC,0.0694 E-score
20,GGAGAAAA,-0.0524 E-score
21,CTAACCCA,-0.0709 E-score
22,ATTACATC,0.148 E-score

# Source: paper PMC6212790
